{"source": "patent US20120270251A1", "about": "“INHIBITION OF THE ACTIVITY OF KINASE AND SYNTHETASE ENZYMES” (CSIR, priority 2009, published 2012)", "molecular_target": "T1, AK1 (Homo sapiens, UniProt P00568)", "T1 sequence (P00568 1-194)": "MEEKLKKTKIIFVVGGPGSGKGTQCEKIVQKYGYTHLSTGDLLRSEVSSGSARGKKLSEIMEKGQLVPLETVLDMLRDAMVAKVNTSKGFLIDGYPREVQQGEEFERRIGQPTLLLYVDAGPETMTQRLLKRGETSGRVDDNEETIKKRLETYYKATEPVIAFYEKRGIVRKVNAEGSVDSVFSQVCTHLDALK", "assay": "AK1 enzyme activity in presence of imidazole compounds over a pH range (ADP by HPLC)", "conditions": "2 mM compound, range of pH values"}
{"smiles": "Cc1nccn1C.Cl", "note": "[1,2 dimethyl imidazole.HCl]", "values": [{"measurement": "inhibition of the activity of AK1 compared with the activity in the presence of NaCl", "value": "distinctive inhibition"}]}
